Assay results taken from PubChem BioAssay AID2101 (National Center for Advancing Translational Sciences (NCATS), 2009).
Hit rate of the full screen: of about 330,000 compounds, about 300 (0.091%) were called active. The inconclusive results got no clear call from the source; some entries with a clear call stand among them for comparison. Calls follow the shape of the dose curve; as a rule, active = well fitted inhibition curve with a large enough effect; inconclusive = small, poorly fitted or top-dose-only effect, or effect the other way, or another doubt; inactive = no such curve, though single readings can be large or run the other way. Potencies of inconclusive entries are left out as doubtful fits.

Each compound was assayed against Lysosomal acid glucosylceramidase (Homo sapiens) (UniProt P04062) (assay: qHTS Assay for Inhibitors and Activators of N370S glucocerebrosidase as a Potential Chaperone Treatment of Gaucher Disease). Details: N370S GC spleen homogenate, 4MU-glucoside fluorescence; activity change, negative = inhibition: at 59.4 µM (top of the series) unless noted.
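For activity change, negative = inhibition in this document: 0% = full enzyme activity and -100% = no enzyme basal.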
Potency is read from the fitted curve at half-maximal effect.

Compound	Potency	activity change, negative = inhibition
Cc1ccc(C(C)C)c(OCC(=O)N/N=C/c2cccn2C)c1	inconclusive [activator, single point]	
COc1ccc(CC(C(=O)Nc2cc(C)ccc2C)/C(N)=N/O)cc1 (stereo not given)	inconclusive [inhibitor, single point]	
Cc1ccc(NS(=O)(=O)c2ccc(Cl)c(C(=O)Nc3ccccc3-c3nc4ccccc4[nH]3)c2)cc1C	inconclusive [activator, single point]	
COc1ccc(NC(=S)NCCc2ccc(Cl)cc2)c(OC)c1	inconclusive [activator, partial curve]	
CNC(=O)C1CC(=O)N(c2ccc(OCC(=O)Nc3ccccc3C)cc2)C1 (stereo not given)		inactive: -0.727%
CCOC(=O)c1c(CSC(=N)N)n(-c2ccc(Br)cc2)c2cc(Br)c(OC(C)=O)cc12	inconclusive [inhibitor, partial curve, poor fit]	
Cc1ccc2cc(CCNC(=O)c3ccc(C)c([N+](=O)[O-])c3)c(=O)[nH]c2c1		inconclusive: 26.8% [activator]
Cc1scc(C(=O)N/N=C/c2ccc(Cl)s2)c1C		inactive: -8.62%
CCOc1ccc(-c2nnc(SCc3nc4ccccc4[nH]3)n2N)cc1		inconclusive: 38.6% [activator]
CNc1nc(-c2ccc3c(c2)CCN3C(=O)c2ccc(F)cc2)cs1		inactive: 9.2%
Cc1cccn2c(=O)c3cc(C(=O)NCC4CCCO4)c(=N)n(C4CCCC4)c3nc12 (stereo not given)	inconclusive [activator, single point]	
O=C(/C=C/c1ccco1)Nc1nc(-c2ccccc2)cs1		inactive: -16.5%
CC1CCN(CCCNC(=O)c2coc3nc4ccccc4nc23)CC1	inconclusive [activator, partial curve]	
N=c1oc2cc(O)ccc2cc1C(=O)Nc1ccc(F)cc1	inconclusive [activator, full curve]	
COc1ccc(Nc2c3ccccc3nc3ccccc23)cc1	inconclusive [activator, partial curve]	
O=C(C1CCCO1)N1CCN(Cc2c(O)ccc3ccccc23)CC1 (stereo not given)		inactive: 16.4%
Cc1nc2ccc(NC(=O)N3CCCCC3)cc2nc1C		inactive: 10.4%
c1ccc(Nc2ccnc(Nc3ccccc3)n2)cc1	inconclusive [inhibitor, partial curve]	
CC(=O)N1CCN(c2ccc(NCc3ccc(C)s3)cc2)CC1		inactive: -12.3%
CC(C)OP(=O)(c1ccc(N(C)C)cc1)C(Nc1ccccc1)c1ccccc1 (stereo not given)	inconclusive [activator, single point]	
